Test results published in a collection of fitness landscapes (doi:10.1016/j.celrep.2020.107928).
Whole data set: some 81,000 sequences, median “one-hybrid fitness for binding NBS DNA” near -0.1, cut for the highest 2% near 0.36. This is one part of the list.

B1: Caulobacter ParB omega fusion; a variant is named by its letters at X, in order, B8GW30 (parent)
chain: MESVVVGEPGMSEGRRGLGRGLSALLGEVDAAPAQAPGEQLGGSREAPIEILQRNPDQPRRTFREEDLEDLSNSIREKGVLQPILVRPSPDTAGEYQIVAGERAWRAAQRAGLKTVPIMVRELDDLAVLEIGIIENVQRADLNVLEEALSYKVLMEKFERTQENIAQTIGKSXSHVANXMRLLXLPDEVQSYLVSGELTAXHARAIAAAADPVALAKQIIEGGLSVRETEALARKAPNLSAGKSKGGRPPRVKDTDTQALESDLSSVLGLDVSIDHRGSTGTLTITYATLEQLDDLCNRLTRGI

Variants of: B1
Assay: one-hybrid fitness for binding NBS DNA (the Noc-binding site; scaled: cognate 1, non-cognate 0); higher = stronger binding
Conditions: with NBS DNA site
Procedure, shortened: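 Values were rescaled so that cognate is 1 and non-cognate is 0. Each is a fitness, the log change in a variant's read ratio to wild type from Illumina reads of plasmids before and after selection, with three replicate libraries pooled and variants under 10 reads dropped. Selection of the Caulobacter ParB libraries, four specificity codons randomised, used E. coli USO with a HIS3 reporter, site 19 bp from the promoter, on M9-minus-histidine with 0.1 mM IPTG and 5 mM 3-AT for 48 hours at 37°C.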

one-hybrid fitness for binding NBS DNA, 0.312:
QMPT

one-hybrid fitness for binding NBS DNA, 0.494:
RTYT

one-hybrid fitness for binding NBS DNA, 0.229:
VRST

one-hybrid fitness for binding NBS DNA, 0.317:
RRMG

one-hybrid fitness for binding NBS DNA, 0.252:
QLMS

one-hybrid fitness for binding NBS DNA, 0.275:
QRFV

one-hybrid fitness for binding NBS DNA, 0.254:
RCKQ

one-hybrid fitness for binding NBS DNA, ≤ 0.2:
HWGV
TLFK
YMDV
NGKV
ATVF
SVGN
WLNR
RVTD
YGFS
VIEK
DGAV
REET
TSRL
RACV
WISG
GKLD
DHMV
LEQC
MHLE
EACT
GLHS
NQQR
RDSN
KKRK
HNQL
AWAG
RNFY
EGWP
FLNG
CLCL
GCSH
AVVC
TPNT
CGSL
NSFS
VWEP
RPCE
QTDC
PYLK
VVAT
FNAG
QQYC
GSQG
PLMR
IQRT
YDTW
VNYS
GYTS
DHPG
KWLG
NGSS
PQFI
YQGR
KCVG
PVPA
DMPG
HRDH
IKVG
DQAE
LYRP
PHIW
DFRG
AHLL
GNRV
TREG
VRII
KIFC
RKGN
RLFC
GCPL
QVGP
KMLS
LSNW
QKSY
EKQN
ALEY
VPWY
TDFC
PHTR
YIDT
LKTT
IRQL
YDRI
HTAC
TGYW
RQLL
WFTT
MAYM
GDMR
QEFY
ESCS
KHAT
VPAG
KALE
HKKM
DHRL
AWWR
LHDR
HYGL
NGKS
RCAK
CTHC
QDGT
VSAR
RVWH
HWEG
RFVG
TICT
EALH
HFVC
PSYG
TVVI
SQAM
QGHS
TIQE
RTYQ
SNKC
LEDR
EANT
WCYC
VNER
NTLP
TPLR
PQTL
QQCF
AKAI
NVMG
VFGS
NSDA
HYGR
QDTM
SGIK
DDHK
RNHL
GITD
FIHR
LHMG
PSLM
KTDR
DHPH
SIRT
LAKV
QFPL
GLAL
CMNG
VSMR
PHDR
SLIL
ATSQ
RSFI
WEEG
IRSL
IRLS
TTII
VSEK
VPTG
ARHT
VIQG
NKNY
TPKT
QWKA
KISG
VAKS
QWRI
QSFC
LAKE
LRTK
AYGG
VWYL
SIHK
MRSL
QSTG
RIVA
PPRK
CHSS
QYEY
MGAE
TAVK
NKRG
RDKA
PRPS
KYNR
VHIR
VYIR
VTVK
MMRL
FHQS
PHNM
QSVH
FYPI
LIIQ
GKPR
FTAC
QRDI
TMGG
HLIM
FSQL
WWAG
EAPI
QIEV
SRFW
VYGG
DPRS
FYLS
HIPY
KDCY
AVEL
QLYK
GRHT
RQVE
VSIA
CAVV
CWAG
IQLR
TVHF
LTGQ
WCLP
HESP
QPED
FFAR
PWCE
DGGG
RIPW
TQRA
DLYT
NKKG
CLTI
SPEW
FMYL
DFWG
KRLP
VGHA
GPQI
LQNF
VIKN
MDRW
TVRG
AADC
MTKT
NIHS
GVWS
CDIT
ATKG
HLLH
NPAT
MLQR
RPDI
TEPE
GHYG
GTRE
RTTK
KQNC
TKEC
NASI
HQHI
GLER
LSQA
FKCG
CETK
NYSG
FVHV
LSKD
PTLV
RLHN
TPMD
RSRI
QIYL
AKNA
QNYS
QSHC
GREF
PGTV
IIIT
MCKA
FSPG
CNSC
AWGL
AVDG
PCGF
DVRD
VSSR
HQFT
GRRW
HENR
RQWV
ATPL
CSDC
FNTP
TNDL

one-hybrid fitness for binding NBS DNA, 0.276:
QRQW

one-hybrid fitness for binding NBS DNA, 0.461:
RTLT

one-hybrid fitness for binding NBS DNA, 0.266:
HTKR

one-hybrid fitness for binding NBS DNA, 0.285:
TQRR

one-hybrid fitness for binding NBS DNA, 0.283:
QIQT

one-hybrid fitness for binding NBS DNA, 0.457:
QMST

one-hybrid fitness for binding NBS DNA, 0.257:
QVTS

one-hybrid fitness for binding NBS DNA, 0.435:
QRGQ

one-hybrid fitness for binding NBS DNA, 0.265:
QSRF

one-hybrid fitness for binding NBS DNA, 0.408:
EAPR
